These are yes or no findings as the source states them, for the method shown. For some assays here: Binding seen in cells or lysates may run through a third protein. Some results given as binding are weak or reduced against the parent protein; the word gives no strength. For some assays here: Sequences can lack the tags named with a protein.
Key:
[1] = molecular target: T1, TRIM3-FLAG full length (human) (UniProt O75382); assay: co-IP; EGFP-TRIM2 and FLAG-TRIM3 constructs overexpressed in HEK293T; IP with anti-GFP and Protein A/G beads or with FLAG M2 beads; 0.5% IGEPAL, 150 mM NaCl, 50 mM Tris-HCl pH 7.5, 5 mM MgCl2; for truncation mutants cells treated with 10 μM MG132 6 h
T1 sequence: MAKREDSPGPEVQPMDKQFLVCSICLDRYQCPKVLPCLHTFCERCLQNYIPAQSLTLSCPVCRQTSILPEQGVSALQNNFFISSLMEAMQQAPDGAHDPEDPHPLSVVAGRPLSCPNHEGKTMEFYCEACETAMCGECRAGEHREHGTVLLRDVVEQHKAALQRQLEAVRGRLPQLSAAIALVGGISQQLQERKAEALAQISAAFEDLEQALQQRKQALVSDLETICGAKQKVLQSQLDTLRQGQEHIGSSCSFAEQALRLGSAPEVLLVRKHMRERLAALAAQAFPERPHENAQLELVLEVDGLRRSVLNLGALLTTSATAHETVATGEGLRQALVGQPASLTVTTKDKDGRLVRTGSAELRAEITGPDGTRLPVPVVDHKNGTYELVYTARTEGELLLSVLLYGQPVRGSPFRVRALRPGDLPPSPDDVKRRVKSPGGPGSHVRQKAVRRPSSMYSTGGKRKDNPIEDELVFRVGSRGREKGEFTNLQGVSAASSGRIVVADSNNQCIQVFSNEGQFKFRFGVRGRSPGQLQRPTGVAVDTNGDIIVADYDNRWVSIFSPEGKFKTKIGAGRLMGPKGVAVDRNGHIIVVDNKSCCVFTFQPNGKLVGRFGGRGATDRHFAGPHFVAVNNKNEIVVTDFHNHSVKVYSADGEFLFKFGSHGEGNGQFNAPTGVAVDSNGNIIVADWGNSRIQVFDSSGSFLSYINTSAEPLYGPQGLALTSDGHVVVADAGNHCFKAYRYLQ

[2] = molecular target: T2, endogenous TRIM3 (human (endogenous in LN229)) (UniProt O75382); assay: co-IP; endogenous proteins from LN229 glioblastoma cells; IP with anti-TRIM2 or anti-TRIM3 and Protein A/G beads, control IP with FLAG antibody; 0.5% IGEPAL, 150 mM NaCl, 50 mM Tris-HCl pH 7.5, 5 mM MgCl2
T2 sequence: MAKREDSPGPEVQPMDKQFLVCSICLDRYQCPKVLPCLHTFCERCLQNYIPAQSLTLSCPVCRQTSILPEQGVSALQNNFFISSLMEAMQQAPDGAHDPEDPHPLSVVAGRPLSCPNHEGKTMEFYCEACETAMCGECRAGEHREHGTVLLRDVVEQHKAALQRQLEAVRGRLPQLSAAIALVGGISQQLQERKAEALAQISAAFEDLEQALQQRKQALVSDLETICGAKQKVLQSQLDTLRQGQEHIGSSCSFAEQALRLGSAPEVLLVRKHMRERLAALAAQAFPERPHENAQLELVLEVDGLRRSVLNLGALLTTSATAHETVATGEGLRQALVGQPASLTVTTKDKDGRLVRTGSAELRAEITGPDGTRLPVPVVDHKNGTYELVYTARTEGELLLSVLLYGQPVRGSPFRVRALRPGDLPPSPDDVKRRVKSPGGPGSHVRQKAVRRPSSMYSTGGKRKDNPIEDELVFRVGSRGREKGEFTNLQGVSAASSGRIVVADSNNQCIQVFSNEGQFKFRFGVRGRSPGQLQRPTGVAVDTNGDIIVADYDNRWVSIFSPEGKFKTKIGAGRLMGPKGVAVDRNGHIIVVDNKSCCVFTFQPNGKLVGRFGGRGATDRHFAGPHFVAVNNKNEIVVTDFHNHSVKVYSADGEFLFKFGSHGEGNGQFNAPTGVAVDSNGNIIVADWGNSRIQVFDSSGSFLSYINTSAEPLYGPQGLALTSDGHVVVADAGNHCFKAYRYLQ

[3] = molecular target: human TRIM3 RING (2-95) (human) (UniProt O75382); assay: SAXS; SEC-SAXS at SWING (SOLEIL); RING constructs injected at 10 mg/ml (ca. 1 mM) on a Bio SEC-3 100 Å column, 15 °C; both purified
[4] = molecular target: human TRIM3 RING (2-95) (human) (UniProt O75382); assay: SEC-MALLS; Superdex 75 or 200 10/300 GL Increase; 20 mM HEPES pH 7.5, 150 mM NaCl, 0.5 mM TCEP, 3 mM NaN3; 25 °C; 100 μl samples at multiple concentrations (5, 3, 2 and 1 mg/ml in Fig. 1b); both purified
[5] = molecular target: human TRIM3 RING-B-box2 (2-153) (human) (UniProt O75382); assay: as above

B1: EGFP-TRIM2 full length (protein, UniProt Q9C040 1-744)
chain: MASEGTNIPSPVVRQIDKQFLICSICLERYKNPKVLPCLHTFCERCLQNYIPAHSLTLSCPVCRQTSILPEKGVAALQNNFFITNLMDVLQRTPGSNAEESSILETVTAVAAGKPLSCPNHDGNVMEFYCQSCETAMCRECTEGEHAEHPTVPLKDVVEQHKASLQVQLDAVNKRLPEIDSALQFISEIIHQLTNQKASIVDDIHSTFDELQKTLNVRKSVLLMELEVNYGLKHKVLQSQLDTLLQGQESIKSCSNFTAQALNHGTETEVLLVKKQMSEKLNELADQDFPLHPRENDQLDFIVETEGLKKSIHNLGTILTTNAVASETVATGEGLRQTIIGQPMSVTITTKDKDGELCKTGNAYLTAELSTPDGSVADGEILDNKNGTYEFLYTVQKEGDFTLSLRLYDQHIRGSPFKLKVIRSADVSPTTEGVKRRVKSPGSGHVKQKAVKRPASMYSTGKRKENPIEDDLIFRVGTKGRNKGEFTNLQGVAASTNGKILIADSNNQCVQIFSNDGQFKSRFGIRGRSPGQLQRPTGVAVHPSGDIIIADYDNKWVSIFSSDGKFKTKIGSGKLMGPKGVSVDRNGHIIVVDNKACCVFIFQPNGKIVTRFGSRGNGDRQFAGPHFAAVNSNNEIIITDFHNHSVKVFNQEGEFMLKFGSNGEGNGQFNAPTGVAVDSNGNIIVADWGNSRIQVFDGSGSFLSYINTSADPLYGPQGLALTSDGHVVVADSGNHCFKVYRYLQ
B1 was tested, and the binding [1] was “binds”.

B2: endogenous TRIM2 (protein, UniProt Q9C040 1-744)
chain: MASEGTNIPSPVVRQIDKQFLICSICLERYKNPKVLPCLHTFCERCLQNYIPAHSLTLSCPVCRQTSILPEKGVAALQNNFFITNLMDVLQRTPGSNAEESSILETVTAVAAGKPLSCPNHDGNVMEFYCQSCETAMCRECTEGEHAEHPTVPLKDVVEQHKASLQVQLDAVNKRLPEIDSALQFISEIIHQLTNQKASIVDDIHSTFDELQKTLNVRKSVLLMELEVNYGLKHKVLQSQLDTLLQGQESIKSCSNFTAQALNHGTETEVLLVKKQMSEKLNELADQDFPLHPRENDQLDFIVETEGLKKSIHNLGTILTTNAVASETVATGEGLRQTIIGQPMSVTITTKDKDGELCKTGNAYLTAELSTPDGSVADGEILDNKNGTYEFLYTVQKEGDFTLSLRLYDQHIRGSPFKLKVIRSADVSPTTEGVKRRVKSPGSGHVKQKAVKRPASMYSTGKRKENPIEDDLIFRVGTKGRNKGEFTNLQGVAASTNGKILIADSNNQCVQIFSNDGQFKSRFGIRGRSPGQLQRPTGVAVHPSGDIIIADYDNKWVSIFSSDGKFKTKIGSGKLMGPKGVSVDRNGHIIVVDNKACCVFIFQPNGKIVTRFGSRGNGDRQFAGPHFAAVNSNNEIIITDFHNHSVKVFNQEGEFMLKFGSNGEGNGQFNAPTGVAVDSNGNIIVADWGNSRIQVFDGSGSFLSYINTSADPLYGPQGLALTSDGHVVVADSGNHCFKVYRYLQ
In the case of B2, the binding [2] is reported as “binds”.

B3: human TRIM3 RING (2-95) (domain or fragment)
chain: GPGAKREDSPGPEVQPMDKQFLVCSICLDRYQCPKVLPCLHTFCERCLQNYIPAQSLTLSCPVCRQTSILPEQGVSALQNNFFISSLMEAMQQAPDG
notes: tripeptide Gly-Pro-Gly left at the N-terminus by 3C protease cleavage; human TRIM3, RING construct, residues 2-95; also called T3R; source: E. coli BL21 (DE3), purified (Ni-NTA, His6 cleaved by HRV 3C, SEC); not shown: His6, N-terminal, cleaved
For B3, the binding [3] was “no binding (tested: 10 mg/ml (ca. 1 mM))” and the binding [4] was “no binding (tested: 1-5 mg/ml)”.

B4: human TRIM3 RING-B-box2 (2-153) (domain or fragment, UniProt O75382 2-153)
chain: AKREDSPGPEVQPMDKQFLVCSICLDRYQCPKVLPCLHTFCERCLQNYIPAQSLTLSCPVCRQTSILPEQGVSALQNNFFISSLMEAMQQAPDGAHDPEDPHPLSVVAGRPLSCPNHEGKTMEFYCEACETAMCGECRAGEHREHGTVLLRD
With B4 the binding [5] was “no binding”.

Source: paper PMC9732051, “Divergent self-association properties of paralogous proteins TRIM2 and TRIM3 regulate their E3 ligase activity” (Nature Communications, 2022)
